From PubChem BioAssay (NCI) come the findings set out here.

This experiment deals with NCI-H322M lung. Description: DTP human tumour cell line panel, 48 h.

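Growth conditions: 96-well plates. Treatment: test compound, 48 hours, 5 concentrations. Analysis: linear interpolation between bracketing concentrations; unreached endpoints set to highest concentration. GI50 marks 50% less growth. TGI marks complete inhibition of growth.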

On to `COc1ccc(C(C)=C(c2ccc(OCCN3CCCCCC3)cc2)c2ccc(OCCN3CCCCCC3)cc2)cc1`, for which the GI50 was 3.33 µM and the TGI came to 8.38 µM.

By GI50 is commonly meant the concentration giving 50% growth inhibition. As a reminder, the TGI is the concentration at which net growth stops.
